Assay results published in PubChem BioAssay AID504706 (National Center for Advancing Translational Sciences (NCATS), 2011).
In all, about 320,000 compounds went through this assay and about 200 (0.062%) were called active. Inconclusive results, whose numbers are uncertain, are shown with a selection of clear calls. Calls follow the shape of the dose curve; as a rule, active = well fitted activation curve with a large enough effect; inconclusive = small, poorly fitted or top-dose-only effect; inactive = no such curve, though single readings can be large or run the other way. No potency is given beside an inconclusive call; the fits are too rough.

Experiment: qHTS assay for re-activators of p53 using a Luc reporter; also: nearly all actives have a fitted effect of over 45% in size
Conditions: H1299 p53-A138V BP100-luciferase reporter, luminescence, 24 h; series mostly up to 92.2 µM
How it was run: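 H1299 (p53-null), stable ts p53-A138V + BP100-Luc; 1000 cells/well, Opti-MEM/10% FBS; cpd 4 pt, 1:5; 24 h, 37 deg C, 5% CO2; detection reagent 10 min RT; luminescence.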
Potency is read from the fitted curve at half-maximal effect; tags tell the direction and shape of the fitted curve.

Row | Compound | Potency
1 | CS(=O)(=O)c1ccc(N)c(SSc2cc(S(C)(=O)=O)ccc2N)c1 | inconclusive [activator, partial curve, poor fit]
2 | COc1ccc(-c2cc(C(=O)n3cnc4ccccc43)c3ccccc3n2)cc1 | inconclusive [activator, single point]
3 | O=C(CCS(=O)(=O)c1ccc(Br)s1)N1CCc2ccccc21 | inconclusive [activator, partial curve, poor fit]
4 | Cc1csc(NC(=O)c2ccc3c(c2)OCO3)n1 | inconclusive [activator, full curve, poor fit]
5 | O=C(c1cccs1)N(CCN1CCCCC1)CC1CCCN(C2CCCC2)C1 (stereo not drawn) | inconclusive [activator, partial curve, poor fit]
6 | COc1ccccc1CCC(=O)Nc1nc2ccccc2[nH]1 | inconclusive [activator, partial curve, poor fit]
7 | CCOc1ccc(NCc2cccn2-c2nnc(N3CCC(C(=O)NCCCN4C(C)CCCC4C)CC3)s2)cc1 (stereo not drawn) | inconclusive [activator, partial curve, poor fit]
8 | COC(=O)c1sc2nc(-c3ccco3)ccc2c1N | inconclusive [activator, partial curve, poor fit]
9 | Cc1nn2cc(-c3ccccc3)nc2[nH]c1=O | inconclusive [activator, partial curve, poor fit]
10 | Cc1ccccc1-c1nc(CN2CCC(C(=O)NCC3CCCO3)CC2)c(C)o1 (stereo not drawn) | inactive
11 | Cn1nc(C(=O)OCC(=O)c2ccc(Br)cc2)c2ccccc2c1=O | inconclusive [activator, full curve, poor fit]
12 | CC1CCCCN1C(=O)COC(=O)c1ccc(N2CCCC2=O)cc1 (stereo not drawn) | inactive
13 | COc1cccc(N2CCN(C(=O)c3ccc(=O)oc3)CC2C)c1 (stereo not drawn) | inactive
14 | Cc1cccn2c(N)c(-c3ccccc3)nc12 | inconclusive [activator, partial curve, poor fit]
15 | O=S(=O)(c1ccc2nc(Nc3ccccc3)ccc2c1)N1CCCCC1 | inactive
16 | CC1CCCCN1C(=O)COC(=O)c1n[nH]c2ccccc12 (stereo not drawn) | inconclusive [activator, full curve, poor fit]
17 | COc1ccccc1-c1nnc(SCC(=O)NCc2c(C)c(Cl)cc(C(C)C)c2O)o1 | inconclusive [activator, single point]
18 | CCOc1ccc(/C=C2/SC(=O)NC2=S)cc1 | inconclusive [activator, partial curve, poor fit]
